Test results from PubChem BioAssay AID1347073 (National Center for Advancing Translational Sciences (NCATS), 2019).
Screen size: about 45,000 compounds; about 200 (0.44%) were called active. Roughly 7% stayed inconclusive and do not appear here. The call rests on the fitted dose curve; in most records, active means well fitted activation curve with a large enough effect; inconclusive means small, poorly fitted or top-dose-only effect; inactive means no such curve, though single readings can be large or run the other way. The list shows a part of the results.

Assay: qHTS of TDP-43 Inhibitors: NCGC Sytravon Library Screen; further: 0% is about no effect; nearly all actives have a fitted effect of over 55% in size
Conditions: yeast TDP-43 toxicity rescue, BacTiter-Glo growth, 24 h; series mostly up to 46.1 µM; growth rescue (activation): at the top concentration
Text: The goal of this project is to identify new chemical probes capable of reversing the toxicity associated with TDP-43 which is associated with frontotemporal lobar degeneration and amyotrophic lateral sclerosis. These compounds will provide a complementary approach to deciphering the tangled mechanisms of toxicity and protection that we have uncovered through genome-wide genetic screens and are beginning to uncover in a large-scale proteomics analysis with mass spectroscopy. To this end, a miniaturized assay was developed to be screened against the Molecular Libraries Small Molecule Repository (MLSMR) to discover TDP-43 inhibitors. Please note that in the set-up this yeast-based assay compounds that inhibit as TDP-43, have a read-out as activators. NIH Chemical Genomics Center [NCGC] NIH Molecular Libraries Probe Centers Network [MLPCN] Assay Submitter (PI): Susan Lindquist, Whitehead Institute/MIT MLPCN Grant: R21 NS060957
Dispense 2.5 microL yeast galactose medium per 1536-well plate, pin compound, dispense 2.5 microL TDP-43 expressing yeast in galactose medium at OD600=0.02 (pregrown in raffinose medium to mid-log phase) per well, incubate for 24 hr at 30 deg C, and cell growth will be measured using 5 microL of Bactiter/Glo reagent to entire plate and read using Luminescence Protocol in ViewLux.

SMILES | growth rescue (activation)
CSc1nc(Sc2cccc(Cl)c2)c2ccccc2n1 | inactive: 14.9%
CCc1nc2ccc(C(=O)N(C)CC(=O)Nc3ccccc3C(F)(F)F)cc2nc1CC | inactive: 18.6%
COc1cc(OC)cc(C(=O)NCCCNC(=O)c2cccnc2)c1 | inactive: -2.64%
Cc1ccc2[nH]c(=O)cc(C(=O)OC(C)C)c2c1 | inactive: 7.02%
N#CC(=C(O)COC(=O)Cc1c[nH]c2ccccc12)c1nc2ccccc2[nH]1 | inactive: 12.6%
COc1ccc(C(=O)Nc2ccc(C(=O)OCC(=O)c3cccc4ccccc34)cc2)cc1 | inactive: 11.3%
CC(=O)OCc1c(-c2ccccc2)c2cc([N+](=O)[O-])ccc2n1C | inactive: 5.14%
O=C(/C=C/c1ccccc1)Nc1cc(S(=O)(=O)N2CCOCC2)ccc1N1CCCC1 | inactive: -26.2%
CCc1nc2c(OCc3ccc(OC)cc3)cccn2c1N(C)C(=O)c1ccco1 | inactive: 6.09%
COc1ccc(CN(C(=O)c2cccc(OC)c2)C2CCS(=O)(=O)C2)cc1 (stereo not drawn) | inactive: 2.53%
CN(Cc1ccccc1F)C(=O)CN1C(=O)NC2(CCc3ccccc32)C1=O (stereo not drawn) | inactive: 9.1%
CC(=O)Nc1cccc(C(=O)NNC(=O)c2ccc(-n3cnnn3)cc2)c1 | inactive: 5.02%
CC(=O)NC1=NN(C(C)=O)C(C)(c2ccccn2)S1 (stereo not drawn) | inactive: -22.4%
COCCN1CN(S(=O)(=O)c2ccccc2)c2nc3ccccc3nc21 | inactive: 10.4%
CN(C)CCN(Cc1cc2cc3c(cc2nc1Cl)OCO3)C(=O)c1ccco1 | inactive: -4.41%
Cc1nn(CC(=O)OCC(=O)c2ccccc2)c(C)c1[N+](=O)[O-] | inactive: 16.3%
OC(CN1CCN(Cc2ccccc2)CC1)Cn1c2ccccc2c2ccccc21 (stereo not drawn) | inactive: 0.488%
CCOC(=O)N1CCN(C(=O)C2CCCN(c3ncnc4c3sc3cccc(F)c34)C2)CC1 (stereo not drawn) | inactive: 17.2%
CCN(CC)S(=O)(=O)c1cccc(C(=O)/C=C2/N(C)c3ccccc3C2(C)C)c1 | inactive: -1.64%
O=C(CC1C(=O)NCCN1Cc1ccc(Cl)c(F)c1)NC1CCCCC1 (stereo not drawn) | inactive: 4.3%
O=C(O)c1nn2c(C(F)(F)F)cc(-c3cccs3)nc2c1Cl | inactive: 11.8%
CC(C)OC(=O)/C(C#N)=C/c1cn(Cc2ccccc2)c2ccccc12 | inactive: 14.4%

SMILES | growth rescue (activation)
COc1ccc(/C=C(\C#N)C(=O)Nc2ccccn2)cc1 | inactive: 0.592%
C=CCOc1c(Br)cc(CNc2ccc(NC(=O)C(C)C)c(OC)c2)cc1OCC | inactive: 16.9%
COc1ccc(OCC(=O)N2CCN(C(=O)c3cc(OC)c(OC)c(OC)c3)CC2)cc1 | inactive: -2.79%
CCS(=O)(=O)N1Cc2ccccc2CC1C(=O)Nc1ccc(F)c(F)c1 (stereo not drawn) | inactive: -0.645%
CCCn1c(N)c(N2CCCCC2)c(=O)n(CC(=O)Nc2ccccc2C(F)(F)F)c1=O | inactive: -6.51%
CC1CCCC(C)N1C(=O)COC(=O)CCC(=O)c1cccs1 (stereo not drawn) | inactive: 5.49%
Cc1ccc(NC(=O)C2c3ccccc3Oc3ccccc32)nc1 | inactive: -5.54%
Cc1csc(SC(C)C(=O)Nc2ccc(F)cc2Cl)n1 (stereo not drawn) | inactive: 35.4%
O=c1[nH]c(=O)n(Cc2ccccc2)c2nc(-c3ccc(Oc4ccc(F)cc4)c([N+](=O)[O-])c3)n(CCO)c12 | inactive: 13.3%
CCS(=O)(=O)C1=NSC2=NC(=O)/C(=C\c3ccc(OS(=O)(=O)c4ccccc4)cc3)C(=N)N21 | inactive: 3.43%
Cc1ccc(CNC(=O)CN(c2cccc([N+](=O)[O-])c2)S(=O)(=O)c2ccccc2)cc1 | inactive: 17.5%
CCCCn1c(=N)n(CC(O)c2ccccc2)c2ccccc21 (stereo not drawn) | inactive: -2.61%
Cc1cccc(NC(=O)CSc2nnc(N)s2)c1 | inactive: -2.95%
NS(=O)(=O)c1ccc(N/N=C/c2ccccn2)c([N+](=O)[O-])c1 | inactive: -1.36%
COc1ccc2[nH]c(C(=O)N3CCN(C)CC3)c(C)c2c1 | inactive: -6.33%
Cc1ccc(C(=O)C2=C(O)C(=O)N(c3ncccn3)C2c2ccc(Br)cc2)o1 (stereo not drawn) | inactive: -14%
CC1CC1C(=O)OCC(=O)Nc1cccc(S(=O)(=O)NC2=NCCCCC2)c1 (stereo not drawn) | inactive: 28.7%
Cc1nnc(NC(=O)C(C)Sc2nnc(-c3ccco3)n2C)s1 (stereo not drawn) | inactive: 10.3%
CC(NC(=O)CN(C)S(=O)(=O)c1ccc(Br)s1)c1ccccc1 (stereo not drawn) | inactive: 11.5%
CCc1nc2ccc(C(=O)NCc3ccc(OC)cc3)cn2c1N(CC)Cc1cccc(Br)c1 | inactive: -0.945%
O=C(COC(=O)c1ccc(Br)cc1)NCc1ccccc1 | inactive: 14.8%
COCCn1c(=O)c2c(nc3n2CCCN3CCc2ccc(OC)c(OC)c2)n(C)c1=O | inactive: 2.88%

SMILES | growth rescue (activation)
COc1ccc(S(=O)(=O)Nc2c(O)c3ccccc3oc2=O)cc1 | inactive: -8.15%
COc1ccc(S(=O)(=O)Nc2cc(Sc3ncn[nH]3)c(O)cc2C)cc1 | inactive: -12.6%
CC(=O)c1c(C)[nH]c(C(=O)OCC(=O)N(Cc2ccccc2)C(C)(C)C)c1C | inactive: 9.01%
CCCS(=O)(=O)N1CCCC(C(=O)NCC2CCCO2)C1 (stereo not drawn) | inactive: -10%
COc1cc(SC)ccc1C(=O)OCC(=O)NC1CCCC1 | inactive: 26.1%
COCCCNC(NC(=O)c1ccc(Br)cc1)C(Cl)(Cl)Cl (stereo not drawn) | inactive: -4.39%
CN(C)CCCn1c(SCC(=O)N2c3ccccc3Sc3ccccc32)nc2ccccc2c1=O | inactive: -10.9%
CCc1nc2c(OCc3cccc(OC)c3)cccn2c1N(C)C(=O)C(C)C | inactive: 5.77%
COc1ccc2cc(C(C)C(=O)N3CCC(C(N)=O)CC3)ccc2c1 (stereo not drawn) | inactive: -3.18%
CC(=O)Nc1ccc(S(=O)(=O)Nc2cc(C)ccn2)cc1 | inactive: 9.19%
Cc1ccc(OC(C)C(=O)N2CC(=O)Nc3ccccc32)cc1 (stereo not drawn) | inactive: 9.22%
CC(=O)N1CCc2cc(S(=O)(=O)NC3CCCCC3)ccc21 | inactive: 2.32%
Cc1cc(=O)oc2cc(OCCCN3C(=O)c4ccccc4C3=O)ccc12 | inactive: 16.2%
CCN1CCSc2ccc(C(=O)NCc3cccc(F)c3)cc21 | inactive: 16.4%
Cc1ccc(NC(=O)Cn2cnc3c(oc4nc5c(cc43)COC(C)(C)C5)c2=O)cc1 | inactive: 10%
O=C1C2C(c3ccccc3)C=CC(c3ccccc3)C2C(=O)N1c1ccccn1 (stereo not drawn) | inactive: -4.8%
O=C(Nc1ccc(N2CCCCC2)cc1)c1cccnc1 | inactive: 0.0556%
COc1ccc(C)cc1NC(=O)Cn1c(=O)oc2ccccc21 | inactive: -9.59%
COc1cccc2c(SCC(=O)N/N=C/c3ccc(O)c(O)c3)cc(C)nc12 | inactive: -9.95%
Cc1cccc(Nc2nc(-c3ccccc3)c3cc(C)ccc3n2)c1 | inactive: 15.1%
C/C(CC(=O)NCc1ccco1)=N\NC(=O)Cc1cccc2ccccc12 | inactive: 2.8%
CCN(CC)c1ccc(NC(=O)CN(C)Cc2cccs2)cc1 | inactive: -23.3%

SMILES | growth rescue (activation)
CCC(CC)C(=O)Nc1ccc([N+](=O)[O-])cn1 | inactive: 19.6%
COc1ccccc1NC(=O)NN1CCCCC1 | inactive: 6.9%
COc1ccc(C(=O)NCCCNC(=O)c2cnccn2)cc1 | inactive: -7.68%
COc1cc2nc(CN(C)Cc3ccc(F)cc3)[nH]c(=O)c2cc1OC | inactive: 1.43%
O=C(Nc1ccc2c(c1)OCCO2)C(=O)NC1CC1 | inactive: 4.3%
CN(C)C(=O)C[n+]1cccc(/C=N/O)c1 | inactive: -7.67%
O=C(CN1C(=O)c2ccccc2C1=O)Nc1ccc(S(=O)(=O)N2CCOCC2)cc1 | inactive: 14.9%
CCCCN(CCCC)CC(O)Cn1c2ccccc2c(=O)c2ccccc21 (stereo not drawn) | inactive: -1.37%
O=C(O)c1cn(CCOc2ccccc2Cl)c2ccccc12 | inactive: 3.64%
O=C(O)CCCN1C(=O)c2ccc(Oc3cccc([N+](=O)[O-])c3)cc2C1=O | inactive: 12.4%
CCN(Cc1ccccc1)c1ccc(/C=N/N2CCOCC2)cc1 | inactive: 7.83%
COc1cc(S(=O)(=O)N(Cc2cccnc2)Cc2cccc(OC)c2OC)ccc1-n1cnnn1 | inactive: 38.5%
CN(Cc1ccccc1)C(=O)CN1C(=O)NC(C)(c2ccc(C(C)(C)C)cc2)C1=O (stereo not drawn) | inactive: 10.5%
CCOc1ccccc1CN(CCc1ccc2c(c1)OCO2)Cc1ccccn1 | inactive: -8.44%
O=C(O)c1ccc(N=Nc2c(-c3ccccc3)[nH]oc2=O)cc1 | inactive: 10.2%
CCn1c(C)cc(/C=C2/SC(=O)N(C(C)C(=O)OC)C2=O)c1C (stereo not drawn) | inactive: 15%
CC(C)c1ccc(NC(=O)Nc2nc(C(N)c3ccccc3)cs2)cc1 (stereo not drawn) | inactive: 17.7%
COCCNC(=O)C1(C)CCCN(Cc2ccc3ccccc3c2Br)C1 (stereo not drawn) | inactive: -3.33%
CCCCn1c(O)c(C=NCCCN(C)C)c(=O)[nH]c1=O | inactive: -25.2%
O=C(CSc1nc2ccc(Cl)cc2[nH]1)NC1CCCc2ccccc21 (stereo not drawn) | inactive: -16.8%
Cc1cc(C)nc(N2CCC(C(=O)NC3CC3)CC2)n1 | inactive: 4.32%
COc1cccc(C2(O)C(=O)Nc3ccccc32)c1 (stereo not drawn) | inactive: -7.8%

SMILES | growth rescue (activation)
CC(C)c1nnc(NC(=O)CCCC(=O)O)s1 | inactive: 11.1%
COC(=O)c1sccc1NC(=S)N1CCCCC1 | inactive: 18.8%
Cc1ccc(CNc2ncc(-c3ccccc3)n2C)o1 | inactive: -2.49%
Cc1ccc(NC(=O)COC(=O)c2ccccc2Nc2ccccc2)cc1 | inactive: 23.5%
CCOC(=O)C1=c2s/c(=C\c3ccncc3)c(=O)n2C(N)=C(C(=O)OC)C1c1ccncc1 (stereo not drawn) | inactive: -0.106%
O=C(O)Cc1ccc(NS(=O)(=O)c2c(Cl)cccc2Cl)cc1 | inactive: 16.5%
CCCSc1ncnc2sc(C)c(C)c12 | inactive: -0.572%
COCCOC(=O)C1=C(C)OC(N)=C(C#N)C1c1ccc2c(c1)OCO2 (stereo not drawn) | inactive: -17.3%
O=C(CSc1cccc[n+]1[O-])Nc1ccc(Br)cc1Br | inactive: 1.08%
COc1ccc(N(CCC#N)S(=O)(=O)c2cccc3nsnc23)cc1 | inactive: -3.63%
COc1ccc(C(=O)NCc2ccc(C(=O)O)o2)cc1 | inactive: -4.2%
CCCCc1ccc(-n2nnnc2SCC(=O)Nc2cc(OC)c([N+](=O)[O-])cc2C)cc1 | inactive: 8.18%
CCOc1ccc(CCNS(=O)(=O)c2c(C)nc3scc(C)n3c2=O)cc1OCC | inactive: -11.7%
Cc1nc2cc(C(=O)OCC(=O)Nc3ccc(C#N)cc3)ccc2n1-c1ccccc1 | inactive: 7.12%
COc1cc(C(=O)NC2CCCc3ccccc32)cc(OC)c1C (stereo not drawn) | inactive: 4.82%
CC(c1ccccc1)N1CCN(C(=O)CCl)CC1 (stereo not drawn) | inactive: 6.59%
Cc1cccc(OC(C)C(=O)OCC(=O)N2CCN(c3ccccc3)CC2)c1 (stereo not drawn) | inactive: 9.99%
O=C(CSc1nnc(Cc2ccccc2)n1-c1cccc(Cl)c1)NNC(=O)Cc1ccccc1 | inactive: 11.6%
COc1cccc(NC(=O)C(Sc2nnc(Nc3ccccc3C)s2)c2ccccc2)c1 (stereo not drawn) | inactive: 7.55%
COc1ccccc1NS(=O)(=O)c1ccc(Cl)c(NC(=O)CN2C(=O)c3ccccc3C2=O)c1 | inactive: -0.983%
